Where “and” joins values, the source holds several entries; their conditions need not be identical. Identical values can stand only once. The whole screen tested about 48,000 compounds, of which about 1,200 (2.5%) were called active. Not shown: some 2% with an inconclusive outcome.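 Rule for the calls: active = activation of at least 60% and not above a set upper limit (about 1 call in 100 departs from these limits); inconclusive = activation of 40% to 60%, or above that upper limit; inactive = activation under 40%.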 Some of the results follow.

For 52 molecules, activation results are on record in PubChem BioAssay AID1346428 (National Center for Advancing Translational Sciences (NCATS), 2018).

This assay has as its target Probable G-protein coupled receptor 32 (Homo sapiens) (UniProt O75388). Put plainly: qHTS for Agonists of Human Resolvin D1 Receptor DRV1. Note: 0% is about no effect. The conditions noted are these: CHO-K1 GPR32 beta-arrestin PathHunter luminescence, 90 min; at 76.9 µM; active compounds read high; zero percent set by DMSO-only wells. Summed up: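 Step 1: seed CHO-K1 GPR32 beta-arrestin cells, 2,500/well, overnight at 37 °C. Step 2: add compounds, 90 min at 37 °C. Step 3: detection reagent, 1 h ambient, then luminescence.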
Chain of UniProt O75388 (O75388 whole entry, looked up): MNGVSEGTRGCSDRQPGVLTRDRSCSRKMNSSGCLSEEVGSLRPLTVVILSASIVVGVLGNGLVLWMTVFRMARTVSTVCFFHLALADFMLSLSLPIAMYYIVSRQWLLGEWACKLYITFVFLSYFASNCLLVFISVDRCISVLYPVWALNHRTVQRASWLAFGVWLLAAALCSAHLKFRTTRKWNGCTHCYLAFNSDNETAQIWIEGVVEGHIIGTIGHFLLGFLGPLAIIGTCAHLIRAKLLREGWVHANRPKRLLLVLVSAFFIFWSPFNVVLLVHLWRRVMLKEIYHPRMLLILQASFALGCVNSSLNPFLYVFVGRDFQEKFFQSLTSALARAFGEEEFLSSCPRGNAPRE
For orientation: qHTS replaces the single test concentration by a dilution series.
On to `COc1ccccc1N1CCN(S(=O)(=O)c2c(C)sc3ncn(CC(=O)N(C)c4ccc(Cl)cc4)c(=O)c23)CC1`, for which the activation is inactive: -10.7%.
Under `CCNC(=O)c1c(NC(=O)Cc2coc3cc(C)cc(C)c23)sc2c1CCCC2` stands inactive: 8.32%.
Under `CC1CCN(CCCC(=O)c2ccc(F)cc2)CC1` stands inactive: -5.47%; under `Oc1c(C(c2ccccc2F)N2CCN(Cc3ccccc3)CC2)sc2nc(-c3ccco3)nn12` (configuration not stated), inactive: 21.9%; under `Cc1c(C(=O)N2CCC(c3nc4ccccc4s3)CC2)oc2ccc(Cl)cc12`, inactive: -20.4%.
Next, `Cc1cc(C)c2c(=O)nc(SCc3ccccc3C)n(C3CC3)c2n1`: inactive: -16.1%; `Nc1ccc(S(N)(=O)=O)cc1`: inactive: -3.54%.
On to `Cc1ccc(NC(=O)c2cc(-c3ccc(Br)s3)nc3ccccc23)cc1F`, for which the activation was inactive: -6.76%.
Next, `Cc1ccc(-n2ncc3c(Nc4cccc(C)c4C)ncnc32)cc1`: inactive: -15.2%; `CCOc1ccccc1N(C)C(=O)C1CCCN(c2ncnc3c2nc2n3CCCCC2)C1` (configuration not stated): inactive: 15.5%.
Next, `Cc1ccc2c(CC(=O)Nc3ccc(S(=O)(=O)N4CCCCC4)cc3)coc2c1`: inactive: -18.2%; `COc1ccc(C(=O)OC2=C(C(=O)c3ccccc3)N(C)S(=O)(=O)c3ccccc32)cc1OC`: inactive: -9.94%.
Next, `COCCn1c(=NC(=O)c2ccc3c(c2)OCCO3)sc2cc(C(=O)OC)ccc21`: inactive: 1.49%.
As to `CCN1CCC[C@H]1CNC(=O)c1cc(S(N)(=O)=O)ccc1OC`, the activation is inactive: 2.07% and inactive: -0.692%.
Under `CCOc1ccc(CNC(=O)Cn2cc3c(n2)-c2c(oc(C(=O)N4CCOCC4)c2C)CC3)cc1` stands inactive: -10%.
`Cc1ccc(CN2C(=O)C3(c4ccccc42)N(c2cccc(F)c2)C(=O)CS3(=O)=O)cc1` (configuration not stated): the activation was inactive: -26.7%.
In the case of `COc1ccccc1N1CCN(CCCNC(=O)c2cnn(-c3cccc(Cl)c3)c2C2CCN(C(=O)OC(C)(C)C)CC2)CC1`, the activation was inactive: -16.1%.
Next, `COc1cc(NC(=O)NC(C)c2c(-n3cccc3)sc3c2CCCC3)cc(OC)c1OC` (configuration not stated): inactive: -14.5%.
Next, `CCOC(=O)c1c(C)c(-c2ccccc2)n(CC(=O)Nc2cc(C)ccc2OC)c1C`: inactive: -0.284%.
Under `Cc1ccccc1CN1CCC(CNc2ncnc3onc(-c4ccc(F)cc4)c23)CC1` stands inactive: -2.76%; under `CCCCN(CC)CCNC(=O)c1cn(C)c(=O)c2c1c1ccccc1n2C`, inactive: -2.3%; under `Cc1ccc(OCc2ccc(-c3nc(C#N)c(NCc4cccnc4)o3)o2)cc1`, inactive: 12.6%.
Turning to `CCc1cccc(-n2nnc(-c3nsc(NC(=O)c4cccs4)n3)c2C)c1`, the activation is inactive: -11.6%.
Regarding `CC(=O)Nc1ccc2nc(-c3cc(C)ccc3C)[nH]c2c1`, the activation was inactive: 34.4%.
Next, `COc1ccc(C2=CC(c3ccccc3Cl)n3nc(-c4ccc(Cl)cc4)nc3N2)cc1` (configuration not stated): inactive: -0.125%; `COc1ccccc1CNC(=O)CCS(=O)(=O)c1ccc2c(c1)CCN2C(C)=O`: inactive: -4.79%.
Under `Cc1nc2nc(NCc3ccc(Cl)cc3)[nH]n2c(=O)c1Cc1ccccc1` stands inactive: 12.3%.
Under `O=c1cc(O)cc(/C=C/c2ccc(O)c(O)c2)o1` stands inactive: -8.65%.
For the molecule `COC(=O)c1scc(-c2ccc(C)cc2)c1S(=O)(=O)N1CCN(c2ccc(C(C)=O)cc2)CC1`, the activation was inactive: -11.9%.
Under `Cc1ccc(Cl)cc1N1CCN(C(=O)Cn2cnc3sc(C)c(S(=O)(=O)N4CCC(C)CC4)c3c2=O)CC1` stands inactive: -9.03%; under `CC1CCc2c(sc(NC(=O)C3c4ccccc4Oc4ccccc43)c2C#N)C1` (configuration not stated), inactive: -6.49%; under `Cc1ccc(-n2c(=O)c3c(C)c(C)sc3n(CC(=O)NCc3ccccc3)c2=O)cc1C`, inactive: -2.76%.
Turning to `CCCn1c(CCC(=O)Nc2ccc(OCC)cc2)nc2cccnc21`, the activation is inactive: -2.25%.
Under `CCOC(=O)c1c(C)oc2nc(C)nc(NCc3ccc(F)cc3)c12` stands inactive: 6.41%.
Next, `COc1ccc(C(=O)Nc2nnc(SCc3cc(=O)c4cc(C)cc(C)c4[nH]3)s2)cc1`: inactive: -5.19%; `CCOc1ccc(CCNC(=O)CCCn2c(=O)c3cccn3c3ccccc32)cc1`: inactive: -14.5%; `Cc1ccc(CNC(=O)CCCn2c(=O)c3ccccc3n(CC(=O)Nc3ccc(C)c(C)c3)c2=O)cc1`: inactive: -3.15%.
Under `Cc1ccc(Cl)cc1NC(=O)C(C)n1nc(-c2ccccc2)ccc1=O` (configuration not stated) stands inactive: -0.748%.
As to `Cc1ccc(-n2ncc3c(NCCC4=CCCCC4)ncnc32)cc1`, the activation is inactive: 26.8%.
`COC(=O)NCC(c1cccnc1)N1CCN(c2ccc(F)cc2)CC1` (configuration not stated): the activation is inactive: 5.55%.
Under `Cn1c(=O)c2c(nc(SCC(=O)Nc3ccccc3F)n2Cc2ccc(Cl)cc2)n(C)c1=O` stands inactive: 3.9%.
Next, `CCc1ccccc1NC(=O)CCNS(=O)(=O)c1ccc2c(c1)CCN2C(=O)C1CC1`: inactive: 29.6%.
Regarding `CCN(c1ccccc1)S(=O)(=O)c1ccc(NC(=O)c2nc(SC(C)C)ncc2Cl)cc1`, the activation is inactive: -2.77%.
Under `Cc1c(O)cccc1C(=O)N[C@@H](CSc1ccccc1)[C@H](O)CN1C[C@H]2CCCC[C@H]2C[C@H]1C(=O)NC(C)(C)C` stands inactive: -24.9%; under `CCOC(=O)c1cnc2ccc(OCC)cc2c1Nc1ccc(OCc2ccccc2Cl)cc1`, inactive: -4.06%; under `Cc1cccc(CNC(=O)CN2C(=O)CSc3c2c(C)nn3-c2ccccc2)c1`, inactive: 22.4%.
Next, `COc1cc(C(CC(=O)Nc2ncccc2C)N2Cc3ccccc3C2=O)cc(OC)c1OC` (configuration not stated): inactive: 1.16%; `COc1ccc(-c2nc3cc(NC(=O)c4ccc(C)cc4)ccc3o2)cc1Cl`: inactive: 25.7%; `CC(=O)c1cc(-c2ccc(F)cc2)n(CCC(=O)Nc2nc3ccc(C)cc3s2)c1C`: inactive: -29.6%.
Next, `CCOc1ccc(Br)cc1C1NC(=O)c2c(sc3c2CCN(C)C3)N1` (configuration not stated): inactive: -24.7%.
Take `Cc1ccc(C(=O)N2CCC(C)CC2)cc1NC(=O)c1nsc2ccccc12`: the activation is inactive: -16.6%.
With `O=C(OCc1cc(=O)n2nc(C3CC3)sc2n1)c1ccc(NC(=O)c2ccccc2F)cc1`, the activation is inactive: -6.73%.
